# The source gives no read counts; variants with many changes may rest on few reads.
# B1: CPEB3 Ribozyme (parent)
# chain: UAACAGGGGGCCACAGCAGAAGCGUUCACGUCGCAGCCCCUGUCAGAUUCUGGUGAAUCUGCGAAUUCUGCUGUAUAUCUC
# Variants of: B1
# Assay: self-cleavage, relative activity (ratio to wild type); higher = more cleavage; in vitro, sequencing
# Method in brief: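 CPEB3 self-cleaving ribozyme mutant libraries were made by rounds of error-prone PCR, barcoded, and transcribed in vitro with T7 RNA polymerase for 5 hours at 37°C. Cleavage occurred during transcription and a 15 min DNase I step before EDTA stop. RNAs were reverse transcribed with template switching and Illumina-sequenced, with DNA sequencing mapping barcodes to variants. Relative activity is the variant's cleaved/total read fraction divided by wild type's (minimum 5 reads), averaged across three batches.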
row,Variant,self-cleavage
1,UAACAGGGGGCAACAGCAGAAGCGUUCACGUCGCAGCCCCUGCCAGAUUCUGGUGAAACUGCGAAUUCUGCUGUAUAUCUC [C12A U43C U58A],0.11
2,UAACAGGGGGCUACAGCAGGAGCGUUCACGUCACAGCCCCUGUCAGAUUCUGGUGAAUCUGCGAAUUCUGCUGUAUAUCUC [C12U A20G G33A],0.1
3,UAACAGGGGGCUACAGCGGAAGCGUUCACGUCGCAGCCCCUGUCAGAUUCUGGUGAAUCUGCGAACUCUGCUGUAUAUCUC [C12U A18G U66C],0.32
4,UAACAGGGGGCAACAGCAGAAGCGUUCACGUCGCAGCCCCUGUCAGAUCCUGGUGAAUCUGCGAAUUCUGCUGAAUAUCAC [C12A U49C U74A U80A],1.08
5,UAACAGGGGGCGGCGGCAGAAGCGUUCACGUCGCAGCCCCUGUCAGAUUCAGGUGAAUCUGCGAAUUCUGUAGUAUAUCUC [C12G A13G A15G U51A C71U U72A],0.07
6,UAACAGGGGGCAACAGCAGAAGUGUUCACGACGCGGCCCCAGUCAGAUUCUGGCGAAUCUGCGAAUUCUGCUGUAUAUCUC [C12A C23U U31A A35G U41A U54C],0.07
7,UAACAGGGGGCUGCAGCAGAAGCGUUCGCGUCGCAGCCCCUGUCAGAUUCUGGUGAAUCUGCGAAUUCUGCUGUAUAUCUC [C12U A13G A28G],0.36
8,UAACAGGGGGCGACAGCAGAGGCAUUCACGUCGCAGCUCAUGUCAGAUUCUGGUGACUCUGCGAAUUCUGCUGUACAUCUC [C12G A21G G24A C38U C40A A57C U76C],0.04
9,UAACAGGGGGCAACAGCAGAAGCGUCCACGUCGCAGCCCCUGACAGAUUCUGGUGAAUCUGCAAAUUCUGCUGUGUAUCUC [C12A U26C U43A G63A A75G],0.17
10,UAACAGGGGGCGACAGCAGAAGCGUUCACGUCGCAGCCCCUGGCAGAAUCUGGUGAAUCUGCGACUUCUGCUGUAUAUCAC [C12G U43G U48A A65C U80A],0.06
11,UAACAGGGGGCUACAGCCGAAGCGUUCACGUCGCGGCCCCUGUCAGGUCCUGGUGAAUCUGCGAAUUCUGCUGUAUAUCUC [C12U A18C A35G A47G U49C],0.1
12,UAACAGGGGGCUACAGCGGCAGCGUUCACGUCGCAGCCCCCGUCAGAUUCUGGUGAACCUGCGAGUUCUGCUGUACAUCUC [C12U A18G A20C U41C U58C A65G U76C],0.07
13,UAACAGGGGGCAACAGCAGAAGCGUUCACGACGCAGCCCCUGUCGGAUUCUGGUGAACCUGCGAAUUCUGCAGUAUAUCCC [C12A U31A A45G U58C U72A U80C],0.14
14,UAACAGGGGGCGGCAGCAGAAGCGUUCACGCCGCAGCCCCUGUCUGAUUCAGGUGAAUCUGCGAAUUCUGCUGUAUAUCGC [C12G A13G U31C A45U U51A U80G],0.05
15,UAACAGGGGGCAACAGCAGAAGCGUUCACGUCGCAGCCCCCGUCAGAUUCUGGCGAAUCUGCGAAUUCUGCUGUAUAUCUC [C12A U41C U54C],0.94
16,UAACAGGGGGCGGCAGCAGAAGCGUUCGCGUCGCAGCCCCUGUCAGAUUCUAGUGAAUCUGCGAACUCUGCUGUAUAUCUC [C12G A13G A28G G52A U66C],0.07
17,UAACAGGGGGCUACAGCCGACGCGUUCACGUCGCAGCCCCUGUCGGAUCCUGGUUAAUCUGCGAAUUCUGCGGUAUAUCUC [C12U A18C A21C A45G U49C G55U U72G],0.04

row,Variant,self-cleavage
1,UAACAGGGGGCUACAGCGGAAGCGUACACGUCGCAGCCCCUGUCAGAUCCUGGUGGAUCUGCGAAUUCUGCUGGUUAUCUC [C12U A18G U26A U49C A56G U74G A75U],1.13
2,UAACAGGGGGCGACAGCGGAAGCGUUCACGUCGCAGCCCCUGCCAGAUUCUGGUGAAUCUGCGAAUACUGCUGUAUAUCUC [C12G A18G U43C U67A],0.06
3,UAACAGGGGGCGUCAGCAGAAGCGCUCACGUCUCAGCCCAUGUCAGAUUCUGGUGAAUCUGCGAAUUCAGCUGUAUAUCUC [C12G A13U U25C G33U C40A U69A],0.04
4,UAACAGGGGGCGACAGCAAAAGCGUUCACGUCGCAGCCCCUGUCAGAUUCUGGUGAAUCUGCGAAUCCCGCUGUAUAUCUC [C12G G19A U67C U69C],0.09
5,UAACAGGGGGCUACGGCAGAAGCGUUCACGACGCAGCCCCUGCCAGAUUCCGGUGAAUCUGCGAAUUCCGCUGUAUAUCGC [C12U A15G U31A U43C U51C U69C U80G],0.12
6,UAACAGGGGGCGACAGCAGAAGCGCUCACGUCGCAGCCCCUGUCAGAUUCUGGUGAAUCUGCGAAUACUGCUGUAUAUCUC [C12G U25C U67A],0.17
7,UAACAGGGGGCGGCAGCAGAAGCGUUCACGUCGCAGCCCCUGUCAGAAUCUGGUAAAUCUGCGAAUUCUGCUGGAUAUCUC [C12G A13G U48A G55A U74G],0.11
8,UAACAGGGGGCAAAAGCAGAAGCGUUCACGUCGCAGCACCUGUCAGAUUCUGGUGAGUCUGCGAAUUCUGCUGUAUAUCUC [C12A C14A C38A A57G],0.37
9,UAACAGGGGGCUACAGCAGGGGCGUUCACGUCGCAGCCCCUGUCAGAUUCUGGUGGAUCUGCGAAUUCCGCUGUAUAUCUC [C12U A20G A21G A56G U69C],0.09
10,UAACAGGGGGCAACAGUAGAAGCGUUCACUUCGCAGCCCCUGUCGGAUUCUGGUGAAUCUGCGAAUUCUGCUGUAUUUCCC [C12A C17U G30U A45G A77U U80C],0.22
11,UAACAGGGGGCUACAGCAGGAGCGUUCACGUAGCAGCCCUUGUGAGAUUCUGGUGAAUCCGCGAAUUCUGCUGUAUAUCUC [C12U A20G C32A C40U C44G U60C],0.13
12,UAACAGGGGGCGGCAGCAGAAGCGUUCACGUCGCAGCCCCUGUCUGAUUCUGGUGAAUCCGCGAAUUCUUCUGUAUAUCUC [C12G A13G A45U U60C G70U],0.07
13,UAACAGGGGGCAACAGCAGAAGCGCUCACGUCGCAGCCCCUGUCAGUUUCUGGUGAAUCUCCGAAUUCUGCUGAAUAUCUC [C12A U25C A47U G61C U74A],0.14
14,UAACAGGGGGCAACAGCAGAAGCGUUCACAUCGCAGCCCCCGUCAGAUUCUGGUGAAUCUGCGAAUUCUGCUGUAUAUCUC [C12A G30A U41C],0.19
15,UAACAGGGGGCUACAGCAGGAGCGUCCACGUCGCAGCCCCUGUCAGAUUCUGGUGAAUCUGCGAAUUCUGCUGUAUAUCCC [C12U A20G U26C U80C],0.53
16,UAACAGGGGGCGACAGCAGAAGCGUCCGCGUCGCAGCCCCUGUCAGAAUCUGGUGAAUCUGCGAAUUCUGCUGUAUAUCUC [C12G U26C A28G U48A],0.08
17,UAACAGGGGGCGACAGCAGAGGCGUUCACGUCGCAGCCCCUGCCUGAUUCUGGUGAAUCUGUGAAUUCUGCUGUAUGUCAC [C12G A21G U43C A45U C62U A77G U80A],0.04

# From the RNAGym collection of RNA variant scans (doi:10.1093/nar/gkz1192)
